The supplement of paper PMC10126150
Sequences with one replicate were seen in a single cluster, so their values are uncertain.

Test system: ATP
Test: switch fluorescence ratio, 500 uM ATP over buffer (Cy3 cluster intensity, sum of 5 cycles each) (fold (ratio)); higher = stronger signal-on switching upon ATP binding; sequences stand for … in TCGTCGGCAGCGTCAGATGTGTATAAGAGACAGTTTTTTTTTTTTTTTTTTTTTTTTT…TC
Conditions: aptamer strand: ATP DNA aptamer (quencher-CACCTGGGGGAGTATTGCGGAGGAAGG + anchor), 100 nM annealed; ATP concentration: 500 uM; one replicate
Procedure, shortened: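 Per cluster, summed Cy3 intensity from the target cycles was divided by that from the buffer cycles to give the fluorescence ratio, then averaged per switch-domain sequence. Clusters outside 100-1000 RFU were excluded. The Cy3-labelled switching-strand clusters, on a modified Illumina MiSeq flow-cell, were annealed to 100 nM quencher-labelled ATP aptamer and imaged in selection buffer, then after 15 min with 500 uM ATP at 22 °C, for five cycles with NaOH stripping and re-annealing between them.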
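Note: ATP exposure 15 min at 22 °C before imaging.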

Sequence | switch fluorescence ratio
TAGATGCGAT | 1.06
ACATCAAATG | 0.944
CACGTTACGC | 1.57
TGGCCCTCAG | 0.996
GTTCTAACAC | 0.994
AAAATAGGGC | 1.08
ACACATCGTT | 1.01
GACCTGGGAA | 1.08
TTCATGAAAA | 0.973
ACCTAGTAGG | 0.995
TGCGTGCTTA | 0.961
ATGGGTTCTT | 0.982
TGGTTTATG | 0.992
TACAAGACTA | 1.07
TACATCTAGG | 0.946
TGCTTTGGAT | 0.986
CGATTTAGT | 1.01
TTGAGATTG | 0.945
ACATGTGGTT | 1.01
TTGGGCCGAA | 0.982
GCAACCTCGG | 1.02
TCGAGCTCGG | 1.02
CCATTTCGAT | 1
GACGTTTAA | 1.05
GGGGAGTCGC | 1.03

Sequence | switch fluorescence ratio
AATCCAATGG | 1.01
CCATTTACTC | 1.2
GCCCCATAAT | 1.03
TTGTTGGCCC | 0.977
GGTACATTGG | 0.98
TGCGGCCCCT | 1.05
TATATCATCG | 0.987
GGTAGTTTAG | 0.989
CGAGATCATG | 1.02
AGCTGCCGGG | 0.99
CCACGATTAT | 1.03
AGTAACGGT | 1.02
AACATATTAG | 1.02
TATATAATCC | 1.08
AAGTGGCGA | 1.05
CACGTCCCCA | 1.06
TGTTCACCTG | 1.11
GGCTCCATAC | 2.21
GCATCACTTG | 1.01
AGGTAGAAAA | 1.04
GTGGCTCTGA | 0.911
ATGACCTTTT | 1.05
GTTATACGTC | 0.991
AAGCGTACTG | 1.06
TTCCCGGAAC | 1.41

Sequence | switch fluorescence ratio
GGTCAATGCG | 1.17
GCGTCTGCTC | 0.98
ATCGATTTA | 0.968
TCATCGGGCA | 1.05
ACGGTCTCGT | 0.999
TGACGCCCAC | 1.95
GAACGAACCG | 0.996
ATAAGGCTGT | 1.04
GCTATCAAGC | 0.998
TCTCGATGGA | 1.01
TCGGAAGTTT | 0.978
GAGGCCAAG | 0.99
GTTCCTCGAG | 1.08
CATGGACCAT | 1.02
TGTCCGCGCT | 2.46
GGCGTAGGGT | 1.03
GTGCTAGAAC | 0.988
TGGTTGATTA | 0.996
TTTCGTTGTT | 0.991
TGCTTTGTAC | 1.18
CTCGGGAGGC | 1.06
CGTTAGGGGT | 0.976
CACATCCGAT | 1.05
GTTGCGTGTA | 0.985
ACCTATGTTG | 1.02

Sequence | switch fluorescence ratio
TTTCGGATCC | 0.994
TGGAAAAGAC | 1.01
TAGTAAAGCG | 1.01
CGGGCATTCA | 0.984
ATACCCCCTT | 1.52
GCGATCAGGA | 0.98
GACTGACGGT | 1.27
CGGATATTGA | 1.02
CCGGTCCCCC | 1.59
TATGACAGAT | 0.971
CGCGACCGAC | 2.2
TGAGGTGACT | 1
ACACACCGAT | 1.2
TAACCCCATT | 1.02
GCGATCGTTA | 1.01
TGGTTGATGC | 1
AAATGTACGC | 1.11
TGAGAACCTG | 0.919
GCAGTTATTA | 0.985
ATAAGAGAGC | 1.07
ACGTACATCG | 1.43
CATCATGTAT | 0.996
TAGCGGATCG | 0.952
AGGTACCTG | 1.07
AAGGTCGGGG | 1.07

Sequence | switch fluorescence ratio
GCGACTACCT | 1.34
TATCCAGTAT | 0.994
AGCAGGCCCG | 0.925
TTGCTTGGCG | 0.985
GGAATCCTAC | 1.02
AAATCCTCAA | 1.1
CGTTGGTGA | 0.988
GCATGTTACG | 1.04
AATACGTACG | 1.29
TCGCTGAAGA | 0.995
GCGACACTTA | 1.07
GGAGGATGCA | 1.03
ATATGAACTA | 1.02
GTTTCGAACC | 0.99
TGGAGGCACA | 1.05
ACATCAGTAA | 0.986
TTGATACTAA | 0.994
GCGTGGTGTA | 1.04
CCATCAAGT | 0.982
AACGAATTGG | 1.01
TATTAGAATT | 1.02
CGGTTTCCGT | 1.04
TGCGTCAGTG | 0.984
AACTATGTAG | 1.03
CATCTTATGT | 0.964

Sequence | switch fluorescence ratio
CTCAGGAGAG | 1.04
GCGTTGCGGA | 0.956
CAGAACAGAC | 1.1
GTTAATGATA | 0.986
GATTCAACTT | 0.984
TCCAATTGGC | 1.07
TTCGCCACAT | 1.03
CGCAACCTTT | 1.27
AAGCCTACGC | 1.16
GGATTGTTTC | 0.97
GAGCTTGTTC | 0.948
AAACGTACA | 1.71
AGTTAAGCAC | 1.33
AGCGGTGCAG | 0.978
GTGTGCACCA | 1.02
ACACACGGGC | 1.49
TTAGGGCCAC | 0.992
CAGCGTAGGC | 0.994
ACGATGGATA | 1.01
GTTGACCAAG | 1.03
GTGTAAGCCA | 0.966
TCGCATTGGC | 1.25
TCAGGGAGCG | 0.991
AGGAGTAGAT | 0.998
ATCCAAAAGG | 0.977

Sequence | switch fluorescence ratio
GACGTGAAAG | 1.03
GGCACGGGTT | 1.01
CAATTTGACA | 1
GGGGCGGTCG | 1.07
CTGGTTGACT | 1.03
AACGAACTTC | 0.983
TTACATATTC | 1.04
ATGTACTATA | 1.08
CAACTTCATC | 1.11
TAAGGGAGGA | 0.98
CTTAAAACCC | 1.01
TGTGGTGAGC | 0.977
CTTTGTAACG | 1.04
ACTGTCAAAT | 1.01
TGAGGCAACG | 1.04
AAGGGGCTCC | 0.957
ACATGGTCAC | 0.999
GGTCTTCGGA | 1.12
TCGGGGGTA | 1
TGTGAAATTT | 0.993
TATATCTCGT | 1.05
CGGTGGAGCA | 1.01
CGCTACCGGC | 1.05
TTTGTATGCC | 1.01
TTCCCGTG | 0.973

Sequence | switch fluorescence ratio
GAAGTATATC | 1.07
TTTGTAGATT | 0.98
TGAGGGACAC | 1.25
CGAGCTCCTT | 0.981
GTCCAGACTC | 1.02
TTCCAGATCT | 1.01
ATGGGTTCGA | 0.983
AGCGCGTTG | 1.01
AGAGGTACTC | 1.03
GAGCCCCTAC | 1.06
GTACGCTGTA | 1.01
GCCGAGTAAC | 1.08
TGTGTTTGA | 0.969
TTGTCGGTGT | 0.994
GAATGTGTAT | 0.985
TATGCTTTAG | 0.947
AGCGTGATGA | 1.01
AACAAACAGG | 1.1
TAGGGGATCT | 1.03
TCTAACTGTT | 0.839
TGACTACACT | 1.25
ATACGGGATG | 1.05
TAGGTTTATG | 0.984
TAACTACTAC | 1.17
AAGAACACGG | 1.02
